Here are results for 2 molecules from publication PMC3901934.

Test [1] addresses T1, GFP–CAS Y12F (full-length CAS tagged with GFP) (UniProt Q61140).
T1 sequence: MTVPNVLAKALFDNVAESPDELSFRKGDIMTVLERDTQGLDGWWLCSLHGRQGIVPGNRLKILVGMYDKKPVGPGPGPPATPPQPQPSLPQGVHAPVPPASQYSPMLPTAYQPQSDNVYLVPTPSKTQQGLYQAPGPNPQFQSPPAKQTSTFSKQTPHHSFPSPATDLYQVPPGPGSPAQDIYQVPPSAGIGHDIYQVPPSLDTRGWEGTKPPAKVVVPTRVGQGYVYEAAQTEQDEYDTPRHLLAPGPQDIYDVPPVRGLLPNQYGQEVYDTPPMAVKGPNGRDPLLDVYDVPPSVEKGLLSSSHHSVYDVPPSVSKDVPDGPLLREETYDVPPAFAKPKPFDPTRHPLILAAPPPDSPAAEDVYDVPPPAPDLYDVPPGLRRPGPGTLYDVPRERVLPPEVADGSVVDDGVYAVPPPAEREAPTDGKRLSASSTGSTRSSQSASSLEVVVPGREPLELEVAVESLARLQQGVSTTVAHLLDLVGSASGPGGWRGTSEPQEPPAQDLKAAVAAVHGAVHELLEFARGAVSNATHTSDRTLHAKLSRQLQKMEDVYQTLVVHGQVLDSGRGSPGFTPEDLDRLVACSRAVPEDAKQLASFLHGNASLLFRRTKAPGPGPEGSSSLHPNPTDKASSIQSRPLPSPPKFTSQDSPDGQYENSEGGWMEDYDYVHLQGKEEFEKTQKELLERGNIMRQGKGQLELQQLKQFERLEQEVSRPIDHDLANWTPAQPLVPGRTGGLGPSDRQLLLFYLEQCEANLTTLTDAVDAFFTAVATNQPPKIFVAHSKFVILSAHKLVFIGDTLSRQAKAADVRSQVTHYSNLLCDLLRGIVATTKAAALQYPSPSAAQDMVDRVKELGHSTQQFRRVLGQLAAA
Put plainly: co-IP; GFP-CAS immunoprecipitated with anti-GFP from CAS-/- MEFs expressing CAS Y12 variants (Fig. 1b) and from FAK-/- MEFs (Fig. 1c); NP-40 lysis buffer; blot with vinculin antibody.

In test [2] the target is T2, GFP–CAS WT (full-length CAS tagged with GFP) (UniProt Q61140).
T2 sequence: T1 sequence with F12Y
The description is as above.

The target of test [3] is T3, GFP–CAS Y12E (full-length CAS tagged with GFP) (UniProt Q61140).
T3 sequence: T1 sequence with F12E
The test is described as above.

Test [4] addresses T4, Vin PNSS GFP (GFP-fused vinculin with PKPP in the proline-rich region changed to PNSS) (UniProt Q64727).
T4 sequence: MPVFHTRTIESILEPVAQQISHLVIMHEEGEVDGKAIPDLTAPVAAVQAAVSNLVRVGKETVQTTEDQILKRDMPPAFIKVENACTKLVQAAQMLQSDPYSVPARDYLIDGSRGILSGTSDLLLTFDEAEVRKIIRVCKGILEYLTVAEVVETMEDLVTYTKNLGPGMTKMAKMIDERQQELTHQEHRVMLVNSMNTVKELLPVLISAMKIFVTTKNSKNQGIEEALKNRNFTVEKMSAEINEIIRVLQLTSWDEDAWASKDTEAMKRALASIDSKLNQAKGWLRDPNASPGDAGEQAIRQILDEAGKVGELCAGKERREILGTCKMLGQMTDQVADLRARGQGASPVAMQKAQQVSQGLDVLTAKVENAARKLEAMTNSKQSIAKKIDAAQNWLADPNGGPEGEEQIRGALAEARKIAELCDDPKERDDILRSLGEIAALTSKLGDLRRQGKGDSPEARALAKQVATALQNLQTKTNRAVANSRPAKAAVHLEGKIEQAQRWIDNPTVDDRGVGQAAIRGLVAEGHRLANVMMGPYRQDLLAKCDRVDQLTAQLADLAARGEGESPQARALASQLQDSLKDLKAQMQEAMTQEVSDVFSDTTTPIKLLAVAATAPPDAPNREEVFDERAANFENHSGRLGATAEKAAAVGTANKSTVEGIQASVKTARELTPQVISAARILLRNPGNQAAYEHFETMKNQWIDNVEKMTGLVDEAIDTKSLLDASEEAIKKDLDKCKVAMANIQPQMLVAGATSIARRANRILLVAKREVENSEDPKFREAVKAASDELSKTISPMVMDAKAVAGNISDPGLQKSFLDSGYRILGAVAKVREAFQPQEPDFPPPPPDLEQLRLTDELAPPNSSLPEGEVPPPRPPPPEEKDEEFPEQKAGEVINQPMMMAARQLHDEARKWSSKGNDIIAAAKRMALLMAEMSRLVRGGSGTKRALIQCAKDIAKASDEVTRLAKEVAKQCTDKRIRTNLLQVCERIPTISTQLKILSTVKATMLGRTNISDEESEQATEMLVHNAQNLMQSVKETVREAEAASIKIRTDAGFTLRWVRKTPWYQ
The test can be described thus: co-IP; GFP vinculin (WT or PNSS) immunoprecipitated with anti-GFP from Vin-/- MEFs; NP-40 lysis buffer; blots with CAS, paxillin and Arp2 antibodies.

The target of test [5] is Vin WT GFP (GFP-fused vinculin WT) (UniProt Q64727). The test is described as above.

Numbering of substitutions follows the chain as printed. Results are given in words; binding and its absence hold for the method and conditions named. Binding seen in cells or lysates may run through a third protein. Some results given as binding are weak or reduced against the parent protein; the word gives no strength. For some assays here: Sequences can lack the tags named with a protein.

B1: vinculin (endogenous in CAS-/- and FAK-/- MEFs) (protein, UniProt Q64727 1-1066)
chain: T4 sequence with N862K, S863P, S864P
As to B1, the binding entry was “binds” in test [1], “binds” in test [2] and “no binding” in test [3].

B2: full-length CAS (in Vin-/- MEFs) (protein, UniProt Q61140 1-874)
chain: T1 sequence with F12Y
On to B2, for which the results for the binding result in test [4] and in test [5] were “no binding” and “binds”, respectively.
